Experimental data as given in PubChem BioAssay AID463173 (ICCB-Longwood Screening Facility, Harvard Medical School, 2010).
About 4,300 (8.3%) of roughly 52,000 compounds were called active. Rule as the data show it: active = survival mostly below about 52% (no sharp cut-off); inactive = mostly above about 56%. Some of the results follow.

These compounds were tested on DeltatarO mutant (assay: growth inhibition of S. aureus wild type versus tarO mutant, primary screen, teichoic acid synthesis inhibitors, RN4220, OD600 (AID 463173)). Settings: OD600, 18 h, hits give low values, screened at 18.75 µg/mL (by protocol).
`CCOC(=O)c1ccc2c(c1)N(Cc1cccc([N+](=O)[O-])c1)C(=O)c1ccccc1S2` was tested, and the survival was inactive: 80%.
`CCc1cccc(CC)c1NC(=O)c1cc(S(=O)(=O)N2CCc3ccccc32)cn1C` was tested, and the survival was inactive: 68%.
For `COC(=O)c1c(NC(=O)CCCOc2ccc(C)cc2)sc2c1C(C(=O)OC)CC2` (configuration not stated), the survival was inactive: 44%.
`Cc1ccc(CN2CCCn3nc(C(=O)NCCN(C)C)cc3C2=O)cc1` was tested, and the survival was inactive: 99%.
`COc1ccc(-c2ccc(NS(=O)(=O)c3ccc(F)c(C(F)(F)F)c3)cc2)nn1` was tested, and the survival was inactive: 117%.
In the case of `CCOC(=O)c1c(C)[nH]c(C)c1S(=O)(=O)N1CCC(C(=O)NCc2ccccc2)CC1`, the survival is reported as inactive: 81%.
`Cc1ccc(C)c(OCCSc2nc3ccccc3n2CC(=O)N2CCOCC2)c1` was tested, and the survival was inactive: 55%.
`COc1ccc2c(c1)c1c(c(=O)n(Cc3ccccc3)c(=O)n1Cc1cc(C)ccc1C)n2C` was tested, and the survival was inactive: 76%.
`Cc1nc2ccn(Cc3ccco3)c(=O)c2cc1C(=O)N1CCN(c2ccccc2F)CC1` was tested, and the survival was inactive: 93%.
In the case of `COc1ccc(NC(=O)Cc2coc3cc(C)cc(C)c23)c(OC)c1`, the survival is reported as inactive: 60%.
In the case of `COc1cccc(OCc2nc3ccccc3n2CCOc2ccccc2)c1`, the survival is reported as active: 35%.
For `Cc1nn2c(=O)cc(COC(=O)c3ccccc3NC(=O)c3ccccc3C)nc2s1`, the survival was inactive: 104%.
With `O=C(N1CCCCC1)C1(c2ccccc2)CCOCC1` the survival was inactive: 105%.
With `COc1ccc(NC(=O)CC2C(=O)N(c3ccc(C)cc3)C(=O)N2CCc2ccccc2)cc1` (configuration not stated) the survival was inactive: 62%.
For `COc1ccc(CC(=O)Nc2c(C(=O)Nc3ccccc3F)oc3ccccc23)cc1`, the survival was inactive: 79%.
In the case of `O=c1c2c([nH]c3ccccc13)CCC2`, the survival is reported as inactive: 118%.
`COCCNC(=O)c1cc2n(n1)CCCN(Cc1ccc(C)cc1)C2=O` was tested, and the survival was inactive: 78%.
For `COC(=O)N1N=C(c2ccccc2)CC1(O)C(F)(F)F` (configuration not stated), the survival was inactive: 85%.
`Cc1c(Cl)cccc1Nc1sc(C(=O)c2ccccc2)c(N)c1S(=O)(=O)c1ccccc1` was tested, and the survival was inactive: 71%.
`CC(=O)Cn1nnc2sc(-c3ccccc3)cc2c1=O` was tested, and the survival was inactive: 65%.
`CN(Cc1ccccc1)C(=O)c1cc2c(=O)n(C)c3ccccc3c2s1` was tested, and the survival was inactive: 86%.
For `CCOC(=O)N1CCc2c(sc3c2c(=O)n(Cc2ccccc2)c(=O)n3Cc2c(F)cccc2Cl)C1`, the survival was inactive: 89%.
For `CCC1C(=O)N=C(SCC(=O)Nc2cccc3ccccc23)NC1=O` (configuration not stated), the survival was inactive: 79%.
`CSc1cccc(N2C(=O)N(Cc3ccc([N+](=O)[O-])cc3)c3ccccc3S2(=O)=O)c1` was tested, and the survival was inactive: 97%.
For `O=C1CC(c2nc3ccccc3n2Cc2c(F)cccc2Cl)CN1c1cccc(C(F)(F)F)c1` (configuration not stated), the survival was inactive: 74%.
`CCOC(=O)c1ccc(N2C(=O)c3n[nH]c(-c4cccs4)c3C2c2ccc(C)cc2)cc1` (configuration not stated) was tested, and the survival was inactive: 78%.
For `Cc1cc(NCCN)nc2ccccc12`, the survival was inactive: 100%.
`CC1=C(C(=O)Nc2ccccc2C)C(c2ccccc2O)NC(=S)N1` (configuration not stated) was tested, and the survival was inactive: 103%.
With `CCCCOc1cccc(C(=O)Nc2cc3nn(-c4ccc(F)cc4)nc3cc2C)c1` the survival was inactive: 81%.
With `CCCN(CCC)CCCNC(=O)Cn1ncc2c3ccccc3n(Cc3ccc(F)cc3)c2c1=O` the survival was inactive: 91%.
For `COCCCNC(=O)CCCn1c(=O)c2cccn2c2cccnc21`, the survival was inactive: 95%.
For `Cc1nc(C)c(-c2ccc(SCC(=O)Nc3ccccc3F)nn2)s1`, the survival was inactive: 118%.
With `Cc1cc2ccccc2n1-c1ccc(C(=O)N2CCCCC2)s1` the survival was inactive: 79%.
In the case of `COc1cccc(CNC(=O)CCNS(=O)(=O)c2cccc3nsnc23)c1`, the survival is reported as inactive: 119%.
With `O=C(c1cc2ccccc2o1)N1CCCC1` the survival was inactive: 99%.
In the case of `Brc1ccc(-c2cc3c(N4CCN(c5ccccc5)CC4)nccn3n2)cc1`, the survival is reported as inactive: 194%.
In the case of `Cc1ccccc1NC(=O)c1sc2nc(-c3ccncc3)ccc2c1N`, the survival is reported as inactive: 39%.
In the case of `O=C(CC1C(=O)N(c2ccc(F)cc2)C(=O)N1Cc1cccnc1)Nc1ccc(F)cc1` (configuration not stated), the survival is reported as inactive: 102%.
For `O=C(c1ccccc1)N1CCN(Cc2ccccc2)CC1`, the survival was inactive: 72%.
In the case of `COc1ccc(CCN2CC(C(=O)NCCc3ccc(C)cc3)CC2=O)cc1OC` (configuration not stated), the survival is reported as inactive: 67%.
For `CCCCn1c(COc2cccc(OC)c2)nc2ccccc21`, the survival was inactive: 57%.
`COc1ccc(C)cc1NC(=O)CSc1nnc(Cn2nnc3ccccc32)n1C` was tested, and the survival was inactive: 89%.
With `CC(C)(CC(=O)OCC(=O)Nc1ccc(F)c(Cl)c1)CC1=NS(=O)(=O)c2ccccc2N1` the survival was inactive: 90%.
In the case of `COc1cc(NC(=O)c2cc3c(=O)oc4ccc(C)cc4c3s2)cc(OC)c1OC`, the survival is reported as inactive: 85%.
For `O=C(CSc1nccn1-c1ccc(Cl)cc1)Nc1nc2ccccc2s1`, the survival was inactive: 78%.
In the case of `CCn1cc(S(=O)(=O)c2ccccc2)c(=O)c2cc(C)ccc21`, the survival is reported as inactive: 119%.
`CCOC(=O)c1[nH]c2ccccc2c1NC(=O)c1ccc(OC(C)C)cc1` was tested, and the survival was inactive: 57%.
In the case of `COc1cc(OC)cc(C(=O)Nc2ccc(S(=O)(=O)Nc3cc(C)nc(C)n3)cc2)c1`, the survival is reported as inactive: 71%.
With `COc1ccccc1CNS(=O)(=O)c1c(C)nc2sccn2c1=O` the survival was inactive: 86%.
`CCN(Cc1ccccc1)C(=O)CCNS(=O)(=O)c1ccc2c(c1)CC(C)N2C(C)=O` (configuration not stated) was tested, and the survival was inactive: 106%.
For `Cc1ccc(S(=O)(=O)c2cn(Cc3ccccc3)c3cc(N4CCCC4)c(F)cc3c2=O)cc1C`, the survival was inactive: 94%.
For `COc1cccc(CNC(=O)CCc2c(C)c3cc4c(C)c(C)oc4cc3oc2=O)c1`, the survival was inactive: 101%.
For `CCOC(=O)c1ccccc1NS(=O)(=O)c1c(-c2ccc(C)cc2)csc1C(=O)OC`, the survival was inactive: 126%.
In the case of `O=C(Nc1ccccc1C1CC1)c1cccs1`, the survival is reported as inactive: 93%.
In the case of `Cc1nc(-c2ccccc2)sc1CCNC(=O)c1ccco1`, the survival is reported as inactive: 86%.
For `CCN(C(=O)Cn1ncc2c1-c1cc(C)ccc1OC2)c1cc(Cl)ccc1OC`, the survival was active: 31%.
For `CCc1ccccc1NC(=O)CSc1ncc2c(n1)-c1ccccc1N(Cc1ccc(C)cc1)S2(=O)=O`, the survival was inactive: 94%.
With `CCN(CCCNC(=O)c1cc2cc3cc(C)ccc3nc2s1)c1cccc(C)c1` the survival was inactive: 102%.
For `O=C(O)CCN1C(=O)c2ccc(Oc3ccc4c(c3)C(=O)N(CCC(=O)O)C4=O)cc2C1=O`, the survival was inactive: 69%.
`Cc1ccc(C)c(NC(=O)C(=O)NCCc2csc(-c3ccc(C(F)(F)F)cc3)n2)c1` was tested, and the survival was inactive: 95%.
`CC(C)(C)C(=O)Nc1ccc2nc(SCC(=O)N3CCCC3)sc2c1` was tested, and the survival was inactive: 97%.
With `COCCNC(=O)Cn1nnc(-c2ccc(OC)cc2)n1` the survival was inactive: 90%.
With `O=C(Nc1ccc(NC(=O)c2cccs2)cc1)c1ccc(Br)cc1` the survival was inactive: 124%.
In the case of `CC1CCN(C(=O)CCCOc2ccc(Cl)cc2)CC1`, the survival is reported as inactive: 95%.
For `CC(C)Oc1ccc(CNC(=O)c2ccc(NC(=O)c3nsc4ccccc34)cc2)cc1`, the survival was inactive: 76%.
With `O=C(OCc1ccccc1Cl)c1ccc(-c2nnn(Cc3ccccc3)n2)cc1` the survival was inactive: 52%.
In the case of `CCOC(=O)C(CC)Sc1nnc(COc2ccc(Cl)c(C)c2)n1CC` (configuration not stated), the survival is reported as inactive: 52%.
With `CCc1ccccc1N(CC)C(=O)c1cc2c(s1)-c1ccccc1OC2` the survival was active: -5%.
For `Cc1cc(C)nc(NC(N)=NC(C)c2ccccc2)n1` (configuration not stated), the survival was active: 20%.
In the case of `CCc1ccc(-n2nc(CO)c(C(=O)NCc3ccccn3)n2)cc1`, the survival is reported as inactive: 56%.
In the case of `Cc1ccccc1CSc1nc2nc(C)c(Cc3ccccc3)c(C)n2n1`, the survival is reported as inactive: 102%.
For `COc1ccc(OC)c(CCNC(=O)c2ccc(CS(=O)Cc3cccc(Cl)c3)o2)c1` (configuration not stated), the survival was inactive: 83%.
In the case of `Cc1nc(-c2ccccc2)sc1-c1ccc(SCC(=O)Nc2ccc(F)cc2F)nn1`, the survival is reported as active: 19%.
In the case of `Cc1oc2ncnc(N3CCCCC3)c2c1C(=O)NCC1CCN(Cc2ccc(F)cc2)CC1`, the survival is reported as inactive: 77%.
For `CCOC(=O)Cn1c(=O)cc(-c2ccccc2)c2c(C)nn(C)c21`, the survival was inactive: 124%.
For `O=C1CC(CSc2nnnn2-c2ccccc2)=NN1`, the survival was inactive: 101%.
For `CCC(C)NC(=O)Cn1c(=O)n(-c2ccc(C)cc2)c(=O)c2ccccc21` (configuration not stated), the survival was inactive: 87%.
With `CN(C(=O)c1nn(C)c2c1COc1ccccc1-2)c1cccc(C(F)(F)F)c1` the survival was inactive: 81%.
`CCOC(=O)c1cn(CC(=O)Nc2cccc(Cl)c2C)nn1` was tested, and the survival was inactive: 94%.
`COc1ccc(N2CCN(CCCNC(=O)c3cnn(-c4ccc(F)cc4)c3-n3cccc3)CC2)cc1` was tested, and the survival was inactive: 83%.
In the case of `O=C(CN(c1cccc(Br)c1)S(=O)(=O)c1ccccc1)N1CCc2ccccc2C1`, the survival is reported as inactive: 86%.
`COCCNC(=O)c1c(NC(=O)Cc2coc3cc(C)ccc23)sc2c1CCCC2` was tested, and the survival was inactive: 58%.
With `Cc1nnc(N2CCN(c3ccccc3F)CC2)c2c1nnn2Cc1ccc(F)cc1` the survival was inactive: 89%.
In the case of `CCOc1ccccc1NC(=O)C(NS(=O)(=O)c1cccc2nsnc12)c1ccccc1` (configuration not stated), the survival is reported as inactive: 92%.
`COc1ccc(-n2ncc(C(=O)N3CCN(c4ccccn4)CC3)c2C2CCN(C(=O)OC(C)(C)C)CC2)cc1` was tested, and the survival was inactive: 78%.
With `CCC(CC)c1nn2c(=O)cc(COc3ccc(NC(=O)c4ccc(Cl)cc4)cc3)nc2s1` the survival was inactive: 99%.
With `O=C(OCc1ccccn1)c1ccc(COc2ccccc2Cl)o1` the survival was inactive: 99%.
For `CCCCNc1nc(Oc2ccc(=O)n(-c3ccccc3)n2)nc(N(C)C)n1`, the survival was inactive: 78%.
For `CCN(CC)c1cc2c(cc1F)c(=O)c(S(=O)(=O)c1cc(C)ccc1C)cn2Cc1ccccc1`, the survival was inactive: 77%.
In the case of `Cc1ccoc1C(=O)NCc1occc1C(=O)O`, the survival is reported as inactive: 85%.
With `O=S(=O)(c1ccccc1)N1CCCc2ccccc21` the survival was inactive: 110%.
`CCOc1ccccc1-n1nnc(-c2nc(-c3ccccc3)no2)c1N` was tested, and the survival was inactive: 86%.
